# Measured values published in the supplement of paper PMC3334620.
# Over roughly 33,000 sequences, “E-score (-0.5 to 0.5)” has its median near -0.056; the highest 2% begin near 0.38. This is one part of the list.
# Biological target: Stb4 (UniProt P50104)
# Assay: PBM E-score (8-mer binding enrichment) (E-score (-0.5 to 0.5)); higher = stronger / more preferred TF binding; most listed sequences are background and not binding sites
# Settings: protein concentration: 200 nM; construct: GST-DNA-binding domain
# In short: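 GST-tagged yeast TFs (full-length or DNA-binding domain) were made by PURExpress in vitro transcription/translation and applied at about 100-200 nM to universal all-10-mer Agilent arrays. The arrays were made double-stranded by primer extension, on fresh or once-stripped slides. Bound protein was detected with fluorescent anti-GST, and scans were normalised with masliner. Each ungapped eight-base word, pooled with its reverse complement, received an E-score (modified Wilcoxon-Mann-Whitney statistic) from the Universal PBM Analysis Suite.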
row,Sequence,PBM E-score
1,GCTATGGA,-0.0234
2,AGGGAACT,0.00217
3,ATGAATAA,-0.163
4,CGCGCATC,0.0736
5,ACGCAGAT,0.162
6,CTCCTTCC,0.128
7,ATCTGGGA,-0.137
8,CAAGGGCG,-0.152
9,CCACCCAA,-0.154
10,GACGATGC,-0.101
11,AATAACGG,0.123
12,TCGCGAGA,-0.0707
13,AGCTACGG,-0.0387
14,AGTCAAGC,-0.171
15,ACGCGCCA,0.0029
16,ATTTTTAA,0.155
17,CAAAGGAC,-0.267
18,CGATGGTA,-0.0298
19,GCAACACC,0.0295
20,AATGGGCA,-0.208
21,CAACTATC,0.116
22,GCCACAGA,-0.0656
23,CGAAACCG,0.273
24,CAACAAGG,-0.101
25,CTGTGCAC,-0.106

row,Sequence,PBM E-score
1,AAAAATGA,-0.123
2,GCCGTTAC,0.197
3,CTCCTGTC,-0.226
4,ATAAGGAG,0.0336
5,GGTGGCAC,-0.0754
6,CTCCATCA,-0.00696
7,CAGCGGCG,0.1
8,CCTATCAA,-0.179
9,CGCAGGAA,-0.0189
10,TACTTAAA,-0.113
11,AACGCTGA,-0.187
12,TGTAAAAA,-0.0748
13,CAGGATGA,-0.184
14,AGTGCACG,-0.115
15,CGCCGCAA,0.0648
16,CGATTGCC,0.0231
17,ACTTGACT,-0.189
18,CGCTCCTA,-0.198
19,ATCGCGTC,-0.00416
20,AGGTTTTA,0.0162
21,CAATATGC,0.0107
22,CCTAGAAA,-0.0513
23,AGCAAAAG,-0.278
24,AAGTGTAT,-0.175
25,CTCGATAC,-0.0942

row,Sequence,PBM E-score
1,TATCTCCA,-0.105
2,CTATACAC,-0.123
3,CCTGCCAA,0.0231
4,AGAGGACG,-0.044
5,CTACTTGC,0.104
6,ATGCGTTC,0.275
7,AACTAGCT,-0.0434
8,GAACGGCC,0.166
9,ATCGGAGA,0.272
10,AGTGCTAG,-0.155
11,ACCCCGAA,0.369
12,AAGTCCTA,0.0417
13,AAACAGGG,-0.232
14,AAAGACGC,-0.136
15,ACGCTTGC,-0.158
16,ACGATACA,-0.21
17,AATCTGTC,0.071
18,GTGAACAA,0.00625
19,ACTACCCC,-0.0517
20,ACACGCAT,-0.172
21,CACCAAAC,-0.0932
22,ATTACTTG,-0.181
23,ATGCGCTG,-0.219
24,GAGGAACA,-0.0308
25,CCCCCCAA,-0.146

row,Sequence,PBM E-score
1,CCCGTGGA,0.225
2,CTGTGACC,-0.0795
3,GCGCCTAC,-0.0577
4,CCGCCGTA,0.225
5,GGGTGGGA,0.179
6,AGAAGGCG,-0.344
7,CTGGATCC,0.194
8,GAACTCTC,0.0244
9,AATACGGT,-0.00013
10,GATCCTTA,-0.0996
11,AAATTCGT,0.117
12,AACTCTAT,0.0804
13,TCCCTGAA,-0.161
14,CTAGTCTA,-0.315
15,AATCTTTA,0.0922
16,CCCGGTAA,0.3
17,ACTACTAA,0.0213
18,ACCAGTTG,-0.0457
19,AACCAGGA,-0.0237
20,TAGCAAAA,0.093
21,CCTAGACC,-0.261
22,CTACCATA,-0.154
23,GTGACCAC,0.128
24,AAAAGCTC,0.0724
25,CGTGTAAA,0.0295

row,Sequence,PBM E-score
1,CGCCACGC,-0.108
2,CCTTGGTC,-0.175
3,CTATAGAG,-0.191
4,AAACTTGG,-0.0999
5,ATAGCCTC,-0.00394
6,TGTCAACA,-0.0386
7,GCCGGATA,0.409
8,GGGTTTCA,0.0781
9,GGTCCCGA,0.39
10,CGCGCTAC,0.0503
11,CAGACAAC,0.0226
12,ATGTAACC,0.0982
13,CCTACTGA,-0.114
14,ACACGGAG,0.115
15,CTCTTTCC,0.123
16,ACTCGGTG,0.124
17,AACGTCCC,-0.00997
18,TAAGCCCA,-0.0698
19,GAAGTACA,-0.013
20,AAAGGAGC,-0.105
21,CACGCTAC,-0.156
22,CGATCGCC,0.0955
23,CCAGCTAC,-0.152
24,GAACCTCA,-0.0198
25,ACTGGTGG,-0.238

row,Sequence,PBM E-score
1,GGGTCGGA,0.392
2,CTATTACA,-0.15
3,AAGGGTCC,0.0575
4,GTGGACAA,-0.105
5,CGAGTGTC,0.0672
6,AGCGCCTA,-0.122
7,CAGCTTTA,-0.0389
8,CGGGTGTC,0.298
9,ACTAGCCA,-0.0771
10,AAGACTCC,-0.0274
11,CAAGTGGC,-0.273
12,TCTCAAAA,-0.0897
13,GCCAAGAA,-0.147
14,CGCGCTTC,0.0362
15,CGGCTCCC,0.241
16,CACCTGAC,-0.194
17,ATAAGCTG,-0.144
18,ATTCGGGG,0.34
19,ATCGCGCC,0.00024
20,GGAGTAAA,-0.012
21,AACAGCTT,-0.189
22,GGTTAGGA,-0.135
23,CGGAGCGA,0.28
24,AACCATAT,-0.127
25,GCACCGTA,0.0199

row,Sequence,PBM E-score
1,AACTACAA,0.168
2,AGTTCCGG,0.419
3,GCCTTACC,-0.134
4,AATGATGT,-0.117
5,TGAGTCCA,-0.11
6,GAAGCCTC,-0.118
7,GGTGCGGA,0.201
8,TAGACATA,0.0472
9,AGACTCAT,-0.141
10,ACTCAGAG,-0.105
11,ATTCGGAA,0.456
12,ACGAACCT,-0.207
13,CGCACAAA,-0.0812
14,ATCCAGCG,0.0613
15,AGGGTACT,-0.262
16,CTAGTATA,-0.0301
17,CGAGCTAC,0.0965
18,AGGTTGCG,-0.269
19,TACGGTCA,0.0631
20,ACCGTTGC,-0.0941
21,TCGCGGCA,0.111
22,CACGACTG,-0.0867
